Data as given in the supplement of paper PMC4967469.
pIC50: −log10 of the molar value. By IC50 is meant the dose at which the fit gives 50% viability; a fit beyond the top or the lowest dose is shown as a bound at that dose. AUC sums up the same curve from the lowest dose to the 256-fold higher top dose; it is 1 without any effect and falls as sensitivity rises. For part of these data: An inferred top dose was calculated from the reported fits.

What was measured:
Assay in all cases: Viability of human cancer cell lines after 72 h of drug (GDSC screen)
AT-7519 = compound: O=C(NC1CCNCC1)c1n[nH]cc1NC(=O)c1c(Cl)cccc1Cl [AT-7519]; settings: top dose 10.24 µM; top dose inferred
Procedure: (§1)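 Human cancer cell lines in 384-well plates, medium with 10% serum, drug for 72 h over a 256-fold dose range (nine 2-fold or five 4-fold steps up to the top dose). Adherent lines were fixed and stained with the nucleic acid dye Syto60, suspension lines read with resazurin; signal relative to control wells, capped at 0 and 100%. One two-parameter sigmoid per drug and line, fitted in a mixed model over all curves with the slope shared within a line.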

FH535 = compound: Cc1cc([N+](=O)[O-])ccc1NS(=O)(=O)c1cc(Cl)ccc1Cl [FH535]; settings: top dose 32 µM; top dose inferred
Procedure: as §1

A-443654 = compound: Cc1n[nH]c2ccc(-c3cncc(OC[C@@H](N)Cc4c[nH]c5ccccc45)c3)cc12 [A-443654]; settings: top dose 1.024 µM; top dose inferred
Procedure: as §1

Dasatinib = compound: Cc1nc(Nc2ncc(C(=O)Nc3c(C)cccc3Cl)s2)cc(N2CCN(CCO)CC2)n1 [Dasatinib]; settings: top dose 1.28 µM
Procedure: as §1

XMD14-99 = compound: COc1cc(N2CCN(C)CC2)ccc1Nc1nc(N)c(C(=O)c2c(Cl)cccc2Cl)s1 [XMD14-99]; settings: top dose 10.24 µM; top dose inferred
Procedure: as §1

Cell Line | AUC (AT-7519) | pIC50 (AT-7519) | AUC (FH535) | pIC50 (FH535) | AUC (A-443654) | pIC50 (A-443654) | AUC (Dasatinib) | pIC50 (Dasatinib) | AUC (XMD14-99) | pIC50 (XMD14-99)
EVSA-T (breast, adherent) | 0.591 | 5.96 | 0.81 | 4.85 | 0.71 | 6.65 | 0.933 | < 5.89 | 0.991 | < 4.99
EW-1 (Ewing sarcoma, semi-adherent) | 0.396 | 6.47 | 0.816 | 4.80 | 0.704 | 6.64 | 0.937 | < 5.89 | 0.83 | 5.24
EW-11 (Ewing sarcoma, adherent) | 0.478 | 6.26 | 0.867 | < 4.49 | 0.981 | < 5.99 | 0.976 | < 5.89 | 0.892 | < 4.99
GDM-1 (acute myeloid leukaemia, suspension) | 0.412 | 6.43 | 0.683 | 5.20 | 0.612 | 6.89 | 0.049 | > 8.30 | 0.92 | < 4.99
GI-1 (glioma, adherent) | 0.49 | 6.22 | 0.449 | 5.84 | 0.69 | 6.67 | 0.804 | 6.21 | 0.985 | < 4.99
GOTO (neuroblastoma, adherent) | 0.808 | 5.21 | 0.921 | < 4.49 | 0.759 | 6.39 | 0.959 | < 5.89 | 0.969 | < 4.99
H9 (lymphoid neoplasm, suspension) | 0.745 | 5.56 | 0.784 | 4.95 | 0.855 | 6.22 | 0.992 | < 5.89 | 0.986 | < 4.99
H-EMC-SS (chondrosarcoma, adherent) | 0.802 | 5.16 | 0.722 | 4.98 | 0.715 | 6.50 | 0.948 | < 5.89 | 0.97 | < 4.99
HA7-RCC (kidney, adherent) | 0.869 | < 4.99 | 0.726 | 5.02 | 0.777 | 6.34 | 0.405 | 7.37 | 0.981 | < 4.99
HAL-01 (lymphoblastic leukaemia, suspension) | 0.899 | < 4.99 | 0.765 | 4.98 | 0.973 | < 5.99 | 0.941 | < 5.89 | 0.865 | 5.13
HC-1 (hairy cell leukaemia, suspension) | 0.296 | 6.76 | 0.726 | 5.07 | 0.673 | 6.72 | 0.891 | < 5.89 | 0.872 | 5.04
HCC2157 (breast, suspension) | 0.659 | 5.74 | 0.739 | 5.00 | 0.827 | 6.18 | 0.98 | < 5.89 | 0.987 | < 4.99
HCC2218 (breast, suspension) | 0.456 | 6.33 | 0.598 | 5.40 | 0.692 | 6.59 | 0.981 | < 5.89 | 0.982 | < 4.99
HCC-33 (small cell lung carcinoma, adherent) | 0.567 | 6.01 | 0.903 | < 4.49 | 0.838 | 6.15 | 0.984 | < 5.89 | 0.981 | < 4.99
HCE-4 (oesophagus, adherent) | 0.913 | < 4.99 | 0.535 | 5.61 | 0.575 | 7.00 | 0.644 | 6.73 | 0.992 | < 4.99
HD-MY-Z (Hodgkin lymphoma, adherent) | 0.391 | 6.49 | 0.788 | 4.85 | 0.791 | 6.33 | 0.94 | < 5.89 | 0.957 | < 4.99
HOP-62 (lung adenocarcinoma, adherent) | 0.438 | 6.36 | 0.623 | 5.36 | 0.631 | 6.83 | 0.33 | 7.57 | 0.975 | < 4.99
HSC-39 (stomach, suspension) | 0.616 | 5.90 | 0.755 | 5.02 | 0.865 | 6.15 | 0.991 | < 5.89 | 0.971 | < 4.99
HUTU-80 (digestive system, adherent) | 0.842 | 5.26 | 0.404 |  | 0.595 | 6.95 | 0.726 | 6.51 | 0.981 | < 4.99
Hs-445 (Hodgkin lymphoma, suspension) | 0.336 | 6.63 | 0.798 | 4.86 | 0.658 | 6.77 | 0.906 | < 5.89 | 0.962 | < 4.99
IA-LM (large cell lung carcinoma, adherent) | 0.78 | 5.32 | 0.559 | 5.53 | 0.687 | 6.64 | 0.947 | < 5.89 | 0.969 | < 4.99
IST-SL1 (small cell lung carcinoma, semi-adherent) | 0.498 | 6.20 | 0.856 | 4.57 | 0.79 | 6.33 | 0.973 | < 5.89 | 0.93 | < 4.99
JAR (urogenital system, adherent) | 0.234 | 6.95 | 0.868 | 4.55 | 0.637 | 6.82 | 0.961 | < 5.89 | 0.986 | < 4.99
JM1 (B-cell lymphoma, suspension) | 0.355 | 6.57 | 0.734 | 5.08 | 0.627 | 6.87 | 0.883 | 5.99 | 0.958 | < 4.99
JSC-1 (B-cell lymphoma, suspension) | 0.408 | 6.44 | 0.739 | 5.02 | 0.666 | 6.74 | 0.948 | < 5.89 | 0.813 | 5.26
